In one assay the target is Non-receptor tyrosine-protein kinase TYK2 (Homo sapiens, UniProt P29597).
Non-receptor tyrosine-protein kinase TYK2, sequence (P29597 whole entry): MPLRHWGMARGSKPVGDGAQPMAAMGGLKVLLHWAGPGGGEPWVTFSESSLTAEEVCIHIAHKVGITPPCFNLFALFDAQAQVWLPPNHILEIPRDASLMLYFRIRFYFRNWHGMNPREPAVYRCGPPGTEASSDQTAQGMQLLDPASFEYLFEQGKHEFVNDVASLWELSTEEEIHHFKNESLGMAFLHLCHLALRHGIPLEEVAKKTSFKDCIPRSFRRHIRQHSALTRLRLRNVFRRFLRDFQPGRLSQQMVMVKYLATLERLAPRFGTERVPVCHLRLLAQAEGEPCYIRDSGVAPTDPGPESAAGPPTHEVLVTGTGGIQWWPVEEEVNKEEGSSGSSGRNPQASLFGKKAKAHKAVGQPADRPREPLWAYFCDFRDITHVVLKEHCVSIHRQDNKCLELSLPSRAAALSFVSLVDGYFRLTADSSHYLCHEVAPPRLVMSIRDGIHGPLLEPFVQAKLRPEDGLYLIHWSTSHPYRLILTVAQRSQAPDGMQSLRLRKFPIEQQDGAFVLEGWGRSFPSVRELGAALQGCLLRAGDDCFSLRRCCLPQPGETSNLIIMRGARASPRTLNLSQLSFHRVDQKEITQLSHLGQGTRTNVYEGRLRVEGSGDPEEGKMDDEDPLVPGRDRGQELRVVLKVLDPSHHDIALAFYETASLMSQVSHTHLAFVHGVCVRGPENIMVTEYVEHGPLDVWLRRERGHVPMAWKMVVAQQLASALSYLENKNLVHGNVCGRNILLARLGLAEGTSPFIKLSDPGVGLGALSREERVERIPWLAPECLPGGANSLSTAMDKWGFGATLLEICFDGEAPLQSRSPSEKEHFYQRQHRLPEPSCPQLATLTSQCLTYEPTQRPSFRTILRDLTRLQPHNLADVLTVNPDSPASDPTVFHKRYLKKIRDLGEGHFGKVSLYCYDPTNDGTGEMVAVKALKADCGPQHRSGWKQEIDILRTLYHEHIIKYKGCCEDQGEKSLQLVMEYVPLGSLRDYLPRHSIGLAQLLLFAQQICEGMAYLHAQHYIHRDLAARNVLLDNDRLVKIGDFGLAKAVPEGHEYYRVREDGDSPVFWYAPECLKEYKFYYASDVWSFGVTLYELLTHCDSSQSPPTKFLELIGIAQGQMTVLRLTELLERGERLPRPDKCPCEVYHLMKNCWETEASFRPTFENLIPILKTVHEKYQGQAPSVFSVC
With `O=C1NC(=O)C(c2c[nH]c3ccccc23)=C1Nc1cccc(O[C@H]2CCN(c3ccnc(F)c3)C2)c1`, the IC50 (as a rule, the concentration needed to halve the response being measured) stood at 5.83 µM.

The target of the next assay is Tyrosine-protein kinase JAK2 (Homo sapiens, UniProt O60674).
Tyrosine-protein kinase JAK2, sequence (O60674 whole entry): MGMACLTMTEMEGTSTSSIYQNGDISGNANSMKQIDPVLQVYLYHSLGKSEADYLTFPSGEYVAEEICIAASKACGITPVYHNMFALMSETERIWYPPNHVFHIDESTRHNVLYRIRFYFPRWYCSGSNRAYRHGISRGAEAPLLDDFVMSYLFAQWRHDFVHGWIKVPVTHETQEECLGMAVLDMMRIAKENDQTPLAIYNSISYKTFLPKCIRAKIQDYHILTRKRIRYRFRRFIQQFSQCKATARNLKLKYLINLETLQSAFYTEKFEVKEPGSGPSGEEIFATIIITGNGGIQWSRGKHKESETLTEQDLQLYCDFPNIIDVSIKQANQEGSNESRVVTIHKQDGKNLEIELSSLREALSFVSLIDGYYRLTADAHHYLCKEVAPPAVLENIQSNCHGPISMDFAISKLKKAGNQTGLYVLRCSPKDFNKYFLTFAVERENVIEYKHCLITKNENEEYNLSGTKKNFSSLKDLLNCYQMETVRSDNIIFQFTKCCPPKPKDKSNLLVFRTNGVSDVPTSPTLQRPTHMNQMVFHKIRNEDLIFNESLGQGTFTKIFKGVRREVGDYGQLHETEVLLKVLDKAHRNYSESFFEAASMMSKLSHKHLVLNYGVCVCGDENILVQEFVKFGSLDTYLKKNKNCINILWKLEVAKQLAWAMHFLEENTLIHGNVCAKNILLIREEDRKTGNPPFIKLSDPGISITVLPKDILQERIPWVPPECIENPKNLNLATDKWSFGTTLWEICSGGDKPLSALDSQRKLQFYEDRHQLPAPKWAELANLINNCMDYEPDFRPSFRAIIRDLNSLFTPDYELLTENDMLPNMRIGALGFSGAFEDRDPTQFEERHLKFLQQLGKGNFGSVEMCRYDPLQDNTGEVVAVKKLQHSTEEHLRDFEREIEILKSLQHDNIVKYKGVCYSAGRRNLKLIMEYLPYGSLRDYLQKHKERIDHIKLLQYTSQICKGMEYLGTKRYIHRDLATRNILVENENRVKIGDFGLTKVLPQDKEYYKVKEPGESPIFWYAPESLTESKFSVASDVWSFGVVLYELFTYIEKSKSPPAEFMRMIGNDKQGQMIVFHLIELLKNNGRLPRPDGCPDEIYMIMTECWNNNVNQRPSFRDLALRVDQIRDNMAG
Regarding `CC(C)(O)C(=O)N1CCN(c2ccc(C(F)(F)F)c(C3=C(c4c[nH]c5ccccc45)C(=O)NC3=O)c2)CC1`, the concentration for half-maximal inhibition (IC50) is more than 10 µM. Compound `O=C1NC(=O)C(c2c[nH]c3ccccc23)=C1Nc1cccc(O[C@H]2CCN(c3ccnc(F)c3)C2)c1` gave an IC50 of 1.48 µM. On the same count and under the same terms, the same measure for `O=C1NC(=O)C(c2c[nH]c3ccccc23)=C1Nc1cccc(O[C@@H]2CCN(c3ccnc(F)c3)C2)c1`: more than 10 µM; for `O=C1NC(=O)C(c2c[nH]c3ccccc23)=C1Nc1cccc(C2CCN(c3ccnc(F)c3)CC2)c1`: more than 10 µM; for `O=C1NC(=O)C(c2c[nH]c3ccccc23)=C1Nc1cccc(C2CN(c3ccnc(F)c3)C2)c1`: more than 10 µM.

`O=C1NC(=O)C(c2c[nH]c3ccccc23)=C1Nc1cccc(OCCCn2ccnc2)c1` gave a 50% inhibitory concentration (IC50) of more than 10 µM. On the same count and under the same terms, under `O=C1NC(=O)C(c2c[nH]c3ccccc23)=C1Nc1cccc(OCCn2ccnc2)c1` stands more than 10 µM; under `O=C1NC(=O)C(c2c[nH]c3ccccc23)=C1Nc1ccc(OCCn2ccnc2)cc1`, more than 10 µM; under `O=C1NC(=O)C(c2c[nH]c3ccccc23)=C1Nc1ccc(OCCCn2ccnc2)cc1`, more than 10 µM. Still for that read-out and setting: the same measure for `O=C1NC(=O)C(c2c[nH]c3ccccc23)=C1Nc1ccccc1OCCn1ccnc1`: more than 10 µM; for `O=C1NC(=O)C(c2c[nH]c3ccccc23)=C1Nc1ccc(OCCCNc2ccnc(F)c2)cc1`: 1.27 µM; for `O=C1NC(=O)C(c2c[nH]c3ccccc23)=C1Nc1ccc(OCCNc2ccnc(F)c2)cc1`: 9.69 µM. Compound `O=C1NC(=O)C(c2c[nH]c3ccccc23)=C1Nc1ccccc1OCCNc1ccnc(F)c1` had an IC50 of more than 10 µM. Regarding `O=C1NC(=O)C(c2c[nH]c3ccccc23)=C1Nc1cccc(OCCNc2ccnc(F)c2)c1`, the 50% inhibitory concentration (IC50) is 2.13 µM. On the same count and under the same terms, the same measure for `Cn1cc(C2=C(Nc3cccc(OCCNc4ccnc(F)c4)c3)C(=O)NC2=O)c2ccccc21`: 1.64 µM; for `CN(CCOc1cccc(NC2=C(c3c[nH]c4ccccc34)C(=O)NC2=O)c1)c1ccnc(F)c1`: 0.49 µM.

In the case of `O=C1NC(=O)C(c2ccccc2)=C1Nc1cccc(OCCNc2ccnc(F)c2)c1`, the IC50 amounted to 11.1 µM. `O=C1C=C(Nc2cccc(OCCNc3ccnc(F)c3)c2)C(=O)N1`: the 50% inhibitory concentration (IC50) was more than 10 µM.

The compound `O=C1NC(=O)C(c2c[nH]c3ccccc23)=C1Nc1cccc(OC2CCN(c3ccnc(F)c3)CC2)c1` gave an IC50 of 1.27 µM. On the same count and under the same terms, the same measure for `O=C1NC(=O)C(c2cn(CCCn3ccnc3)c3ccccc23)=C1Nc1ccccc1`: 3.85 µM; for `O=C1NC(=O)C(c2c[nH]c3ccccc23)=C1Nc1cccc(C2CCN(c3ccnc(F)c3)C2)c1` (racemic): more than 10 µM; for `O=C1NC(=O)C(c2c[nH]c3ccccc23)=C1Nc1cccc(OC2CCCN(c3ccnc(F)c3)C2)c1` (racemic): more than 10 µM. `O=C1NC(=O)C(c2c[nH]c3ccccc23)=C1Nc1cccc(OC2CCN(c3ccnc(F)c3)C2)c1` (racemic) showed an IC50 of 1.24 µM.

Values taken from ChEMBL document CHEMBL3112442, “Anilino-monoindolylmaleimides as potent and selective JAK3 inhibitors” (Bioorg Med Chem Lett, 2014).
